Measured values from publication PMC12136788.
The other results are listed elsewhere or left out.

T1: UNK ZnF1-3 (human, UniProt Q9C0B0 31-174)
T1 sequence: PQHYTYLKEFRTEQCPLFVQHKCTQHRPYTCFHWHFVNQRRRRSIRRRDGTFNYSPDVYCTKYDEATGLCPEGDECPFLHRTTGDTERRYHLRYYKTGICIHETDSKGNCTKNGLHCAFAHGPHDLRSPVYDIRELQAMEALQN

B1: chr2:225400320:225400321:-_ENSG00000036257_ENST00000409096|hu_mus|motif|central (ssRNA)
RNA: GGGAGUUCUACAGUCCGACGAUCAUUUUCUACAUUAUUCUGUUGUACAUAUACACGGUCCAUAUACAUUAAUAUGUCUCGGAUCAUCACCAUGGCUGUUUGAUGAUCAUUCCAAGCUUGAUUUAGUGUUUGAAGAAAGUUGUUCAACAGAGGAUUGAGCAUCA
B2: chr3:8561242:8561243:+_ENSMUSG00000027500_ENSMUST00000029002|mus_mus|FALSE|FALSE (ssRNA)
RNA: GGGAGUUCUACAGUCCGACGAUCAGCAACCAGCUCACAGUCUCCAAGUGGAAAAACGUUCAGUAGCAUUAUGUGCUUGUACUACAGGCAAAAGCUUAAAAUGAACAUCAUCACCCAUGGCACCCACAGAUAAGCCACCCGACACAACAGAGGAUUGAGCAUCA
B3: chr11:30000241:30000242:-_ENSMUSG00000020315_ENSMUST00000011877|mus_mus|FALSE|FALSE (ssRNA)
RNA: GGGAGUUCUACAGUCCGACGAUCUAUUUCCAACACAGCCUCACAAAAUUGAGGAACAGUUUAAAUACUGAGAUCUAAUCUAUAUAAUUUCAUUAAAAAAAUCUGGCCUUCCCUCUGUACCUCAAACUUUUUAAACUUGGAGAUCAACAGAGGAUUGAGCAUCA
B4: chrX:71549400:71549401:+_ENSMUSG00000019087_ENSMUST00000019231|mus_hu|mus_mus_mus_hu_False|8_48 (ssRNA)
RNA: GGGAGUUCUACAGUCCGACGAUCGCAGUAGGAAGAGGGAAGCUCUUCAGUCCAGUGCGCUGCAGGGUGGGAAAGCAACAACACGGAACCAAUACUCCCCUCAACCCCCCCACUGGCACAGGGUCACAUCUGGGUCAUCAAAGACAACAGAGGAUUGAGCAUCA
B5: chr3:148802587:148802588:-_ENSG00000071794_ENST00000310053|hu_mus|hu_hu_hu_mus_False|18_68 (ssRNA)
RNA: GGGAGUUCUACAGUCCGACGAUCUCCAACAACUUGUCCUCUCAUAGUUCCAAAUAAAACCAAAUCUACUUCUUCAUCACUCGUUAGGAAGUCAUCUGGAGGAAUAAUGUCUUGGAAUUCAAAACGUGGCAAGAAAGUUGAGUACAACAGAGGAUUGAGCAUCA
B6: chr7:31307748:31307749:-_ENSMUSG00000036882_ENSMUST00000044338|mus_hu|FALSE|FALSE (ssRNA)
RNA: GGGAGUUCUACAGUCCGACGAUCGUACAAGGACCCUCGGUGGAGCUCGCCCCCCCUUCCGUAGGCUGGCGGGGCUGCCCUGUAGAGCAGGAGAGGCUCAGGAGGGCCCCAGGGACCCGGCACCCUAUGAGGGGUACGGGGUCCCAACAGAGGAUUGAGCAUCA
B7: chr2:61705333:61705334:-_ENSG00000082898_ENST00000401558|hu_hu|motif|central (ssRNA)
RNA: GGGAGUUCUACAGUCCGACGAUCGUUGUCGACAAGCGACAGCACACACACACAAAAACAAAAAGAACUGUGUAAAAAUAACGGACUGUGUUCCCAUAUUUUUGAAGUCGCUUUACAAUGGGAUGAUAUGCACAUGAUCUUGCUCAACAGAGGAUUGAGCAUCA
B8: chr4:76721835:76721836:+_ENSG00000138768_ENST00000264904|hu_mus|hu_hu_hu_mus_True|18_58 (ssRNA)
RNA: GGGAGUUCUACAGUCCGACGAUCGUUUGGCUGGGGUUUCUGAGACGCUCUGGAAUAUAACUCAUGUUUGCUAAUAAUCCUAGUUUCCUCUAUGAAAUUCUCUUUGCCAAUCCUCUUUCAAUCAGUUUGCUUUAGUUUCUCUUUCAACAGAGGAUUGAGCAUCA
B9: chr4:82150701:82150702:-_ENSMUSG00000008575_ENSMUST00000064770|mus_hu|FALSE|FALSE (ssRNA)
RNA: GGGAGUUCUACAGUCCGACGAUCUAAAACGCACUUUCCGGGAGAUGCCCAAGAAAAUCUUCGAGAAGCAAGAAUUUCAUCUAUUCAUUUUACAGUCAUCUGAGCCCCGCGAUGCGAUCAAUCAGGACGGGGCUCUGCGCUGGACAACAGAGGAUUGAGCAUCA
B10: chr5:21408736:21408737:-_ENSMUSG00000042453_ENSMUST00000161356|mus_hu|mus_mus_mus_hu_False|98_108 (ssRNA)
RNA: GGGAGUUCUACAGUCCGACGAUCGUUGACAGCAUUAUAAAUGGUGGCUUCAUGGAACUGGAAAGGGGAGCAGCCAAUGCUGUUAGAAGAGGAAGGAAGGCACUGGGUCUGUACGAGCUGCCAGGAAUCCGAUCUUGCAUCCUUCAACAGAGGAUUGAGCAUCA
B11: chr1:58468927:58468928:-_ENSMUSG00000026034_ENSMUST00000148330|mus_mus|mus_mus_mus_hu_False|38_68 (ssRNA)
RNA: GGGAGUUCUACAGUCCGACGAUCAAUUACUGAAAAAGAUGUUCAUUACCUUAGCUAUGUACUUAAUUUAAUAAAGCACCCAAACAAAAUAAACAUGUUUACAAAUUAAUGUUAAGAAUUUACAAAGCUGUACAAAAUAACUUACAACAGAGGAUUGAGCAUCA
B12: 133831465_133831585_4723_3pUTR_ENSMUSG00000026434_ENSMUST00000062264|mouse|control|control (ssRNA)
RNA: GGGAGUUCUACAGUCCGACGAUCGAUAUUCAGAAUCAUGUAUUCUCUUUUCUAAGACAAAGGGGGAAAAAAAAGGAGGUUCAAAUAGUAACAUGGCUAUUGAUAGCUUGACAUCGCAAUACUCAAAAAACAAAAGGAAAAACUCAACAGAGGAUUGAGCAUCA
B13: 32832707_32836631_14450_CDS_ENSG00000115760_ENST00000421745|human|control|control (ssRNA)
RNA: GGGAGUUCUACAGUCCGACGAUCGUGAGACAUAGUCCUGCCUACCCGCUUAUCACUGCUGUACUGCUGGAUAUCCGCAAUCCACUCCUCACAUUGGGCCAUUAUCUCAACUCUUUUCAAGUAAAAAUGUUUGUGUAUUACCUCCAACAGAGGAUUGAGCAUCA
B14: chr11:87044885:87044886:-_ENSMUSG00000046442_ENSMUST00000055438|mus_mus|motif|central (ssRNA)
RNA: GGGAGUUCUACAGUCCGACGAUCAGGACCAAUCAUCUCAACUGGUGGCAAAAAUUGGGUACUGUGAGGUUUGCUUGCUUCGGUUUGUGUGAGAUCUAGGUAGUCUGGAUCUUCCAGCACGUUGAUUUGGGGCCCUGGGCUGAGCAACAGAGGAUUGAGCAUCA
B15: 112041256_112114866_283_5pUTR_ENSG00000010810_ENST00000368667|human|control|control (ssRNA)
RNA: GGGAGUUCUACAGUCCGACGAUCUCUAAAUUCCAAAAUGUCCGCCAACGAUCACAAACUUUAUAUACACCACAUGUCUUCUACAACAGAGGCAGGACUGGUCCUUUGUGAAUUUCUGGGGCUCUUUAGAUCCCCCUCUGGAAUCAACAGAGGAUUGAGCAUCA
B16: chr16:15112699:15112700:+_ENSG00000179889_ENST00000396410|hu_hu|motif|central (ssRNA)
RNA: GGGAGUUCUACAGUCCGACGAUCCCACAGAGGCAGGGCACGGAGUUUGUCUGUGGGCUUAUUUGAUGUAAGACCAGCAACGGAAGUCAAGGCAGGGUCAUCGUGUUUAUACAGUGUCACCGCAGGAACAGCUGGCAAACCCAGCAACAGAGGAUUGAGCAUCA
B17: chr2:178096726:178096727:-_ENSG00000116044_ENST00000397062|hu_mus|FALSE|FALSE (ssRNA)
RNA: GGGAGUUCUACAGUCCGACGAUCCAGUGUGGCUUCUGGGCUGGGAACAGCGGUAGUAUCAGCCAGCUGCUUGUUUUCGGUAUUAAGACACUGUAAUUCGGGAAUGGAAAAUAGCUCCUGCCAAACUUGCUCCAUGUCCUGCUCCAACAGAGGAUUGAGCAUCA
B18: chr2:232320318:232320319:-_ENSG00000115053_ENST00000322723|hu_hu|hu_hu_hu_mus_True|28_38 (ssRNA)
RNA: GGGAGUUCUACAGUCCGACGAUCACUAUUAAAGUCUACAAAACCAAACCCUUUGGAAGAACCAGUUUCCCGAUCAGUGACUAUUCUUGCACGAACAGAGCCGUCAAAUGACUCCUUUAAGGUCUCUUCAGUGGUAUCCUCAGACAACAGAGGAUUGAGCAUCA
B19: 57771027_57777582_1111_CDS_ENSMUSG00000055720_ENSMUST00000163329|mouse|control|control (ssRNA)
RNA: GGGAGUUCUACAGUCCGACGAUCGCUUAGUUCGUCAUCCUGGAUGCCCAUGUCACGCAACUGCUGCAGCUGAGGCUGCCACUGGAUCUGAAGGCUGGGCUGCCCAGAGGCCUGCAGGGCAUGCUGGAGAGCUUGGCUAAAAAGCAACAGAGGAUUGAGCAUCA
B20: 42839324_42839525_1391_CDS_ENSG00000105429_ENST00000334370|human|control|control (ssRNA)
RNA: GGGAGUUCUACAGUCCGACGAUCCAGGUCCCAAGACUCCCAGGUGUUGGCGGAGAAGUUGUAUAGGACGAGGUCACCCAGGGCAUUGUUGAGGUCCUGGCCUCCGAAAACUGCCAGCAGCCCUGGUGGGGACAGGAAGGCGCCCAACAGAGGAUUGAGCAUCA
B21: chr1:244855233:244855234:+_ENSG00000121644_ENST00000302550|hu_mus|hu_hu_hu_mus_True|78_88 (ssRNA)
RNA: GGGAGUUCUACAGUCCGACGAUCCAUCAGAUGGUAGGCGUUGCCCUUGUAUUCUUUUCCCAGUUCUUCUACAAUUUUCUCUAUAUCAUCUUCUAGAAAGUCCGUACUUCCUAGAACAACAGCUUCUUUAAAUUUAAAUGUUUCCAACAGAGGAUUGAGCAUCA
B22: chr1:187193504:187193505:+_ENSMUSG00000026615_ENSMUST00000046514|mus_hu|FALSE|FALSE (ssRNA)
RNA: GGGAGUUCUACAGUCCGACGAUCAUCAAUCUCAGUAUGUUCCAUCAGAUUAGAGCCAUAUAACCCAGCUGUAGUUGCAACUCUAGCCAAGUAGCGAAGUAUAGAAUUCACAUCUGUGAAUAUCACAUUUUCAGAAACAUGAAGCAACAGAGGAUUGAGCAUCA

These binders were tested against T1, UNK ZnF1-3 (assay: nsRBNS (natural sequence RNA bind-n-seq); RBNS binding buffer (assumed for nsRBNS): 25 mM Tris pH 7.5, 150 mM KCl, 3 mM MgCl2, 0.01% Triton X-100, 500 ug/ml BSA, 20 U/ml SUPERase-In, 4 C; UNK is unkempt and MSI1 is Musashi-1; names of the RNAs are library labels; protein concentration not given here; high values mean tight binding).
Work on B1 yielded a binding signal of 0.493 enrichment R.
In the case of B2, the binding signal is reported as 1.44 enrichment R.
In the case of B3, the binding signal is reported as 2.65 enrichment R.
In the case of B4, the binding signal is reported as 1.33 enrichment R.
B5 was tested, and the binding signal was 1.15 enrichment R.
For B6, the binding signal was 0.424 enrichment R.
In the case of B7, the binding signal is reported as 0.696 enrichment R.
With B8 the binding signal was 0.422 enrichment R.
Binder B9 has a binding signal of 0.967 enrichment R.
Work on B10 yielded a binding signal of 1.74 enrichment R.
For B11, the binding signal was 0.991 enrichment R.
B12 was tested, and the binding signal was 1.62 enrichment R.
For B13, the binding signal was 0.91 enrichment R.
B14 showed a binding signal of 1.61 enrichment R.
Binder B15 has a binding signal of 1.32 enrichment R.
B16 was tested, and the binding signal was 1.28 enrichment R.
Binder B17 has a binding signal of 0.979 enrichment R.
B18 was tested, and the binding signal was 0.755 enrichment R.
In the case of B19, the binding signal is reported as 0.77 enrichment R.
For B20, the binding signal was 1.2 enrichment R.
With B21 the binding signal was 1.35 enrichment R.
Binder B22 has a binding signal of 1.25 enrichment R.
